One molecule from publication PMC4091835 (Nature structural & molecular biology, 2014) can be followed below.

This assay concerns the target Human Cdc42 residues 1–178, constitutively active mutant G12V (human, UniProt P60953 1-178, G12V). In words: ITC.

B1: IRSp53 FL mutant SH3-SWAP (SH3 domain of IRSp53 swapped for that of Eps8) (other)
chain: MSLSRSEEMHRLTENVYKTIMEQFNPSLRNFIAMGKNYEKALAGVTYAAKGYFDALVKMGELASESQGSKELGDVLFQMAEVHRQIQNQLEEMLKSFHNELLTQLEQKVELDSRYLSAALKKYQTEQRSKGDALDKCQAELKKLRKKSQGSKNPQKYSDKELQYIDAISNKQGELENYVSDGYKTALTEERRRFCFLVEKQCAVAKNSAAYHSKGKELLAQKLPLWQQACADPSKIPERAVQLMQQVASNGATLPSALSASKSNLVISDPIPGAKPLPVPPELAPFVGRMSAQESTPIMNGVTGPDGEDYSPWADRKAAQPKSLSPPQSQSKLSDSYSNTLPVRKSVTPKNSYATTENKTLPRSSSMAAGLERQPKKYAKSKYDFVARNNSELSVLKDDILEILDDRKQWWKVRNASGDSGFVPNNILDIVRPDGSDRLHMSLQQGKSSSTGNLLDKDDLAIPPPDYGAASRAFPAQTASGFKQRPYSVAVPAFSQGLDDYGARSMSSGSGTLVSTV
B1 registered a Kd of 3.8 µM.
